Source: the supplement of paper PMC3334620
The full ranking holds about 33,000 sequences; the median of “E-score (-0.5 to 0.5)” is about -0.056, and the highest 2% start at about 0.38. This is one part of the list.

Biological target: Stb4 (UniProt P50104)
Assay: PBM E-score (8-mer binding enrichment) (E-score (-0.5 to 0.5)); higher = stronger / more preferred TF binding; most listed sequences are background and not binding sites
Settings: protein concentration: 200 nM; construct: GST-DNA-binding domain
In short: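 GST-tagged yeast TFs (full-length or DNA-binding domain) were made by PURExpress in vitro transcription/translation and applied at about 100-200 nM to universal all-10-mer Agilent arrays. The arrays were made double-stranded by primer extension, on fresh or once-stripped slides. Bound protein was detected with fluorescent anti-GST, and scans were normalised with masliner. Each ungapped eight-base word, pooled with its reverse complement, received an E-score (modified Wilcoxon-Mann-Whitney statistic) from the Universal PBM Analysis Suite.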

Sequence	PBM E-score
GCTTTTAA	0.0126
TCGCGAAA	-0.0156
CCGCATCG	0.227
TACGAGAA	-0.113
GTGGTACA	-0.0951
CGCGTGAC	-0.0474
AACAGGAG	0.00857
CGACATCC	0.229
AGATTTCC	0.193
AAGGCAAA	-0.222
ACGTTCTA	-0.282
CAACGGGA	0.201
ACCGCTTG	-0.0825
AGTAGAAT	-0.297
CTGGTCTA	-0.0983
GCCGACTA	0.166
CTGCGCTA	-0.215
GCCGGAGA	0.192
CCATGACG	-0.0178
AGACGAGC	-0.217
GCCTCCAA	-0.157
AGGGGTGC	-0.196
CATCTGAG	-0.123
GATAAGCA	0.136
ACGCAGCA	-0.243

Sequence	PBM E-score
AGGCACAC	0.0134
CACTGGCC	-0.154
CTCCGCAA	0.094
CCATTAAA	0.101
AGAAGATA	0.055
CGTTTATA	-0.0024
CTTCCGGC	0.392
CCTCGAGG	-0.259
CGATACTA	0.081
CACTATCG	0.0687
TGATGGCA	-0.277
ATGATTGC	-0.134
AGCTTCGG	0.395
CAAAGACC	-0.0254
GATGGACA	-0.0273
CACCCATA	-0.137
GAATCGGC	0.338
GTTCAAAA	0.0253
CCAGGTTA	-0.135
ACACCTCA	-0.205
ACCGGCTC	0.204
ATAACTAG	-0.123
GACGCACA	0.0387
ACCCTGAG	-0.122
CTATGATC	-0.0477

Sequence	PBM E-score
TCCGAAAA	0.441
ACTCTCGG	0.416
ACGTGACC	-0.02
GTGAGAGA	-0.2
TGCCGCCA	0.202
GAAGGAAC	0.123
AATCAGAT	-0.0523
AAGTCGGA	0.372
AACTAGAC	-0.0359
CGTATACG	0.241
AGCTCGAG	-0.176
GAGCGCAC	0.11
GTCATATA	-0.0992
ATCAGGCC	-0.0274
GAATTTCC	0.221
GGATATGA	0.235
CGGAAGAG	0.351
ACCTACGG	0.0352
AAAAATAC	0.0542
ACAAACTC	0.113
CTCTCGAA	-0.356
GTGAACTA	-0.156
CACTCGAA	-0.267
AGGGAGGG	0.109
GGCTATCA	0.144

Sequence	PBM E-score
AGTAGTGA	-0.0831
AGAGGGAT	-0.271
CTCTACCA	0.0241
GCGGACAA	0.126
AGTATGCA	-0.176
AAGAGTTG	-0.164
CAGAGGCG	-0.0504
TAGTTACA	-0.0897
AAGTGAAT	0.149
CAGTCTTC	-0.162
GTCCGGAC	0.283
CACCCGGC	0.277
CTCGCCAG	-0.119
AGAATGAC	-0.222
ACCTCAGG	-0.28
GTTCCAAC	0.0869
ACTCGCTG	-0.174
ACCAATCG	-0.00773
CTCGATAA	0.0444
AAAAGAAC	-0.0657
AGACACAT	-0.212
CCCCGTCG	0.0478
ACATTTGG	-0.0128
GTAGCTGA	-0.195
CGAAGGTA	0.0861

Sequence	PBM E-score
GCACAGAC	-0.0125
ATAAAGGA	-0.15
GACCTGTA	-0.0511
CCAATAAA	-0.11
AGTAGCGA	-0.293
AGTCCGGA	0.332
GGAAGCTA	0.3
CTGGTTGA	-0.237
CACCACGA	-0.167
AGACACAG	-0.089
ACGGCATG	0.0075
CAGTATGA	-0.185
CGGTATGC	0.0919
AAAATAAT	-0.0309
GCCCGCCC	0.107
CACAGTAA	-0.243
GTTAACCA	0.0012
GAAAGTGC	-0.0189
GCTGAGCA	-0.123
GAGCGACA	-0.201
CTTTAAGA	0.0633
ACGCAGAC	-0.181
ATGGGTGG	-0.0789
ACCGTTCA	0.0153
ATGTGACG	-0.15

Sequence	PBM E-score
GTGCAAGA	-0.0626
ATTATTCC	0.25
ACTCACAT	-0.312
AAGGACTG	-0.22
GCCCTAAC	0.0868
GTTCCCGA	0.419
CTCATGGC	-0.0117
TAGCTATA	-0.0836
AACCGCAA	0.0842
CCAAAGCC	-0.0887
CCGTCTAG	0.161
ACACAGTC	-0.138
GTCTCTAA	-0.126
ACTACATA	-0.242
CTGATGCC	-0.0385
CTAATCAC	0.00419
CTTTCTCC	0.0408
ATTGGACC	0.104
ACGTGCGA	-0.198
CTCACCAA	-0.133
ATGGAATC	-0.0161
GCTGGCAC	-0.224
CAGCACCC	0.0352
ATCAAGAG	-0.113
ATTTGTCC	0.112

Sequence	PBM E-score
ACCACAGG	-0.177
ATCCCGCC	0.232
ATCCTTAG	-0.0109
ATCTCACG	-0.0385
AGATAGAT	-0.187
GGCTATAA	0.104
GCAACAGA	0.00771
AACCTCAT	-0.122
ATGAATGG	-0.0556
AGGCTCAA	-0.202
ACGCGTAA	-0.121
CGCAATTC	0.084
CAAAGCGC	0.0796
ACACGGCG	0.0269
CGGACCAG	0.108
ACCCGGAT	0.374
CATTGATC	-0.0448
ATGTATAC	-0.078
CGGGCCTA	0.156
GACGAGCC	-0.0685
GAACTTTA	0.154
CGGCCACA	0.0589
ACGACCCA	-0.168
GCATGCTA	-0.0194
GTATACGA	0.00578

Sequence	PBM E-score
AATGAACA	-0.147
CATCCGGG	0.397
TTAAACAA	-0.263
CAAAAGGC	-0.0435
GGCACGCC	-0.0433
CATTTTCC	0.0537
ACCACCTC	0.177
TGGCCAAA	-0.175
CCCTACAA	-0.218
GGAGGGTA	0.0433
CGCCAGTA	-0.199
CAGTTTCC	0.197
GATTCGCC	-0.0248
GATCGTAC	0.108
AAGGTCCG	0.217
ACATCTCT	-0.243
CTAGCTTC	0.122
AACATTTG	-0.0816
GGCAAAAA	0.233
AAAACGCG	0.0778
AGTCGTCA	-0.192
AGTAAGTC	-0.0385
CCAATCTA	0.0537
AATCCCGC	0.225
GCCTGACA	-0.111

Sequence	PBM E-score
CTATCTAC	-0.0208
TACCAACA	-0.169
TCTGTGCA	-0.163
TGGAGAAA	-0.15
ACCGGAGC	0.244
CGGCATCC	0.301
AAGCAGGT	-0.046
CAACCTCG	0.19
CGAATACG	0.146
CTGTAAAC	-0.205
CGTATACC	-0.086
TAGAGGGA	-0.272
ACGCCACA	-0.00364
CTTCCCTC	-0.117
ACCTCCCT	-0.111
ACTAAGAC	-0.125
GTTCGCGA	0.0211
CTCGTCAA	-0.214
CTGTCCCA	-0.234
GAGCCGCC	0.229
AGTTATAC	0.0159
ACCGAGAC	0.357
GGTCAACC	0.0687
CCTCAGCC	-0.238
GAATCGTA	-0.0747

Sequence	PBM E-score
AGCTTTAA	-0.17
GAGAGCAA	-0.0902
AGATTACA	0.033
GCTAAACC	0.121
TCGTATAA	0.0332
CCAAAGAG	-0.0937
AATTTTGG	-0.0161
AAATAACC	0.127
GAGGTGAA	-0.125
CCCACATC	0.023
CAACCGTG	-0.0932
ACGAGTAC	-0.106
ATACGCCA	-0.0679
CGGCGGGA	0.275
AAGGAATA	-0.116
CACGCCCA	-0.105
AGAGGAGG	-0.109
GCATGTCA	-0.073
GCTTCAAC	-0.173
CGTCGAAA	-0.0197
CCCTCCGG	0.208
GGCCGAAC	0.313
CCAAAACC	0.0531
GTCAACAA	-0.0581
AGCCAGCC	-0.123

Sequence	PBM E-score
AAATAGTA	-0.0686
ACTGTCTG	-0.0825
CTATCGAG	-0.194
CCGTACTC	0.00399
GGTCACCA	-0.165
GCCGCCTA	-0.194
AGTTATCG	0.0187
CGTGGGGC	-0.121
AAGCTAAT	-0.0799
ACCAACAT	-0.0973
CTGTGTAC	-0.102
CCAGCGAA	-0.0403
CAGGTGAA	-0.225
CAGATCCA	0.0283
ACTGTAAA	-0.0512
AAACCAAA	-0.0346
ATGGGTAG	-0.0557
CATAAGAC	0.0362
TGACCGAA	0.186
ACCCGGAG	0.373
GCCGACAC	0.334
GAGGATTA	-0.137
GAACTTGC	0.0628
CTTCGATA	-0.0771
GGCAGTAA	0.153

Sequence	PBM E-score
GCAGCACA	-0.0912
AGTGTGCC	-0.016
CGGGGGTA	0.249
CCCGAAAA	0.428
AGGCTAAT	-0.0464
CACGCTTA	-0.139
AATGCTGT	-0.257
GCCTGCCA	-0.171
CATGTACC	0.00657
ACTGACCG	0.0627
CATCTTGA	-0.112
GGAGATAC	0.151
CGTGACAA	0.0349
CTTCCCGA	0.438
ATCTTGAG	-0.202
GGGACGAA	0.0281
CAGGGCGA	-0.16
AACGCATT	0.0198
ATCGACTC	-0.187
AGTCATCA	-0.195
AGCCCAAC	-0.206
CGTCGCAG	-0.19
ACGTAACC	-0.0457
GGACATTA	0.201
GGATGGTA	0.192

Sequence	PBM E-score
CAATGATG	-0.0788
CCCGGTGA	0.157
GATTTCAA	0.0907
TGATAAAA	-0.0907
ATGATTAG	-0.0462
ATAGGACG	-0.122
AGCCACCT	-0.245
GGCTACCA	-0.127
CGTTACGA	0.108
GCATGCGA	-0.0513
GCCGTGAC	0.117
GGTTCTGA	-0.0424
CCCCTCCC	0.206
TAAAAGTA	0.116
AATCAAGA	-0.216
ATGGCCCA	0.0885
GTTCGCCA	-0.127
AAAGGACT	0.0649
GCCCGCAA	0.00771
CATCAAAA	-0.0393
ACAGATAT	-0.15
AAACTAAG	0.00403
ACGTTTCG	0.0854
ATCATCAT	-0.0104
GAATAGGA	-0.076

Sequence	PBM E-score
CGGAGCAA	0.281
CGGATCTA	0.391
CTCTTACA	-0.378
ATGTAAAC	0.0204
ACTCCCGC	0.234
ACACGCCA	0.0744
TAGAGCGA	-0.157
ACTAAAAC	-0.00594
TACGAAAA	-0.0536
AGCTGTCC	-0.277
GGGTGTCA	0.0604
TACGCCTA	-0.219
AGAGTTTG	-0.149
CGTCACCA	-0.219
AAACCTGC	-0.121
CCCCGACC	0.101
AATAATGC	0.0744
CGGCAACA	0.365
GCTTGCAA	-0.268
